# Reference: PubChem BioAssay (NCATS)
# Where “and” joins values, the source holds several entries; their conditions need not be identical. Identical values can stand only once. This list was built around the results that the source calls inconclusive (neither active nor inactive); the mix of calls is not that of the screen. Where the call is inconclusive, the potency comes from a doubtful curve fit. Calls of active or inactive are those of the source. Calls follow the shape of the dose curve; as a rule, active = well fitted inhibition curve with a large enough effect; inconclusive = small, poorly fitted or top-dose-only effect; inactive = flat fitted curve, though single readings scatter.
# Assays:
# CRL-7250 = normal cell line; assay: Cytotoxic Profiling of Annotated Libraries Using Quantitative High-Throughput Screening (AID 1296008); settings: Five cell lines viability, CellTiter-Glo ATP luminescence, 48-72 h; max response: stronger effect = lower value; as to max response: % is scaled to controls: 0 for no effect and ±100 for the full control effect
# Summary of the method: (§1)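 Compounds were pin-transferred onto cells and incubated 48 or 72 hr at 37 degree Celsius, 95% humidity. CellTiter-Glo was added, plates sat 10 min at room temperature, then ATP-coupled luminescence was imaged as the viability read-out.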
# HEK293 = assay: as above; settings: Five cell lines viability, CellTiter-Glo ATP luminescence, 48-72 h; max response: stronger effect = lower value
# Summary of the method: as §1
# HaCat = assay: as above; settings: Five cell lines viability, CellTiter-Glo ATP luminescence, 48-72 h; max response: stronger effect = lower value
# Summary of the method: as §1
# GB4 = assay: qHTS profiling for inhibitors of Plasmodium falciparum proliferation (AID 504749); settings: P. falciparum in erythrocytes, SYBR Green DNA, 72 h; series mostly up to 28.7 µM
# Summary of the method: (§2)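 Quantitative HTS: compounds pinned into medium, infected erythrocytes added (0.3% parasitemia, 2.5% hematocrit), 72 h culture at 37 C under 5% CO2. Saponin/Triton lysis with SYBR Green I, overnight RT, then fluorescence read.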
# JCK = assay: as above; settings: P. falciparum in erythrocytes, SYBR Green DNA, 72 h; series mostly up to 28.7 µM
# Summary of the method: as §2
# P93_24 = assay: as above; settings: P. falciparum in erythrocytes, SYBR Green DNA, 72 h; series mostly up to 28.7 µM
# Summary of the method: as §2
# P94_40 = assay: as above; settings: P. falciparum in erythrocytes, SYBR Green DNA, 72 h; series mostly up to 28.7 µM
# Summary of the method: as §2
# PAD = assay: as above; settings: P. falciparum in erythrocytes, SYBR Green DNA, 72 h; series mostly up to 28.7 µM
# Summary of the method: as §2
# PC15 = assay: as above; settings: P. falciparum in erythrocytes, SYBR Green DNA, 72 h; series mostly up to 28.7 µM
# Summary of the method: as §2
# PC26 = assay: as above; settings: P. falciparum in erythrocytes, SYBR Green DNA, 72 h; series mostly up to 28.7 µM
# Summary of the method: as §2
# PC49 = assay: as above; settings: P. falciparum in erythrocytes, SYBR Green DNA, 72 h; series mostly up to 28.7 µM
# Summary of the method: as §2
# SC27B = assay: as above; settings: P. falciparum in erythrocytes, SYBR Green DNA, 72 h; series mostly up to 28.7 µM
# Summary of the method: as §2
# TAB109 = assay: as above; settings: P. falciparum in erythrocytes, SYBR Green DNA, 72 h; series mostly up to 28.7 µM
# Summary of the method: as §2
# TAB113 = assay: as above; settings: P. falciparum in erythrocytes, SYBR Green DNA, 72 h; series mostly up to 28.7 µM
# Summary of the method: as §2
# TAB165 = assay: as above; settings: P. falciparum in erythrocytes, SYBR Green DNA, 72 h; series mostly up to 28.7 µM
# Summary of the method: as §2
# Also: nearly all actives have a fitted effect of over 60% in size.
# Potency is read from the fitted curve at half-maximal effect; tags tell the direction and shape of the fitted curve.
smiles,measurement,setting,value
COc1cc(N2CCN(C)CC2)ccc1Nc1nc(N)c(C(=O)c2c(Cl)cccc2Cl)s1,max response,CRL-7250,inactive: -21%
Cc1ccc(NC(=O)c2cccc(C(C)(C)C#N)c2)cc1Nc1ccc2ncn(C)c(=O)c2c1,Potency,CRL-7250,"inconclusive: 1.32 µM [inhibitor, full curve]"
NC(=NCc1ccccc1)NC(=O)c1nc(Cl)c(N)nc1N,Potency,CRL-7250,"inconclusive: 33.2 µM [inhibitor, single point]"
Cc1ccccc1C(=O)c1ccc(Nc2ccc(Br)cc2N)cc1Cl,Potency,CRL-7250,"inconclusive: 37.2 µM [inhibitor, partial curve, poor fit]"
same,max response,CRL-7250,inconclusive: -36.6% [inhibitor]
same,Potency,HEK293,"inconclusive: 29.1 µM [inhibitor, single point]"
same,Potency,HaCat,"inconclusive: 25.9 µM [inhibitor, partial curve, poor fit]"
CCc1cc(-c2n[nH]c(C)c2-c2ccc3c(c2)OCCO3)c(O)cc1O,Potency,CRL-7250,"inconclusive: 11.8 µM [inhibitor, single point]"
Cc1ccc2c(c1)c1c(n2CCc2ccc(C)nc2)CCN(C)C1,Potency,CRL-7250,"inconclusive: 25.9 µM [inhibitor, partial curve, poor fit]"
N#Cc1c(NC(=O)c2cccc3ccccc23)sc2c1CCCC2,Potency,CRL-7250,active: 1.32 µM
COc1ccccc1-c1cccc(-c2c(O)c3cc(C#N)c(Cl)cc3[nH]c2=O)c1,Potency,CRL-7250,active: 8.55 µM
CCOc1ccccc1OCCNC(C)Cc1ccc(OC)c(S(N)(=O)=O)c1 (stereo unspecified),max response,CRL-7250,inactive: 3.17%
same,outcome,CRL-7250,inactive
same,Potency,HEK293,"inconclusive: 29.1 µM [inhibitor, single point]"
CCN1CCCC1CNC(=O)c1cc(S(=O)(=O)CC)c(N)cc1OC (stereo unspecified),outcome,CRL-7250,inactive
C[C@]12CC[C@@H]3c4ccc(O)cc4CC[C@H]3[C@H]1[C@@H](O)[C@@H](O)[C@H]2O,max response,CRL-7250,inactive: 0.316%
Cn1c(=O)c2c(ncn2C)n(C)c1=O,max response,CRL-7250,inactive: 0.692% and inactive: -3.54%
Cc1cccc(N(C)C(=S)Oc2ccc3ccccc3c2)c1,max response,CRL-7250,inactive: -5.5%
same,outcome,CRL-7250,inactive
same,Potency,HEK293,"inconclusive: 33.5 µM [inhibitor, single point] and inconclusive: 37.2 µM [inhibitor, single point]"
CN(C)CCC=C1c2ccccc2C=Cc2ccccc21,Potency,GB4,"inconclusive: 7.57 µM [inhibitor, partial curve]"
same,Potency,JCK,"inconclusive: 10 µM [inhibitor, single point]"
same,Potency,P93_24,"inconclusive: 3.98 µM [inhibitor, partial curve]"
same,Potency,P94_40,"inconclusive: 5.01 µM [inhibitor, partial curve]"
same,Potency,PAD,"inconclusive: 6.31 µM [inhibitor, partial curve]"
same,Potency,PC15,"inconclusive: 4.47 µM [inhibitor, partial curve]"
same,Potency,PC26,"inconclusive: 8.49 µM [inhibitor, partial curve]"
same,Potency,PC49,"inconclusive: 3.98 µM [inhibitor, partial curve]"
same,Potency,SC27B,"inconclusive: 7.08 µM [inhibitor, partial curve]"
same,Potency,TAB109,"inconclusive: 4.47 µM [inhibitor, partial curve, poor fit]"
same,Potency,TAB113,"inconclusive: 11.2 µM [inhibitor, single point]"
same,Potency,TAB165,"inconclusive: 6.31 µM [inhibitor, partial curve]"
same,Potency,CRL-7250,"inconclusive: 8.33 µM [inhibitor, full curve]"
same,max response,CRL-7250,inactive: -6.55%
same,Potency,HEK293,"inconclusive: 29.9 µM [inhibitor, single point]"
same,Potency,HaCat,"inconclusive: 16.6 µM [inhibitor, partial curve, poor fit]"
O=C1CN2Cc3c(ccc(Cl)c3Cl)N=C2N1,Potency,CRL-7250,"inconclusive: 37.2 µM [inhibitor, single point]"
COc1ccc2c(c1)c(CC(=O)OCC(=O)O)c(C)n2C(=O)c1ccc(Cl)cc1,max response,CRL-7250,inactive: -1.43% and inactive: 4.64%
Nc1ncnc2c1c(-c1cccc(OCc3ccccc3)c1)cn2C1CC(CN2CCCC2)C1 (stereo unspecified),Potency,CRL-7250,"inconclusive: 37.2 µM [inhibitor, single point] and inconclusive: 29.1 µM [inhibitor, single point]"
COc1ccc(-c2cc3nccn3c(Nc3ncccc3C(N)=O)n2)cc1OC,Potency,CRL-7250,"active: 2.09 µM and inconclusive: 5.8 µM [inhibitor, full curve]"
Cc1cnc(NC(=O)C2=C(O)c3ccccc3S(=O)(=O)N2C)s1,Potency,CRL-7250,"inconclusive: 11.8 µM [inhibitor, single point]"
OCCn1cc(-c2ccc3c(c2)CCC3=NO)c(-c2ccncc2)n1,Potency,CRL-7250,"inconclusive: 37.2 µM [inhibitor, single point]"
NC(=O)C1CCCc2c1[nH]c1ccc(Cl)cc21 (stereo unspecified),Potency,CRL-7250,"inconclusive: 18.7 µM [inhibitor, partial curve]"
Cn1cc(-c2ccncc2)c(-c2ccc(OCc3ccc4ccccc4n3)cc2)n1,Potency,CRL-7250,"active: 2.64 µM and inconclusive: 18.4 µM [inhibitor, single point]"
OC[C@H](Cc1ccccc1)Nc1nc(Oc2ccc3c(c2)CCC3)nc2c1ncn2Cc1ccc(-c2ccccc2)cc1,Potency,CRL-7250,"inconclusive: 4.69 µM [inhibitor, full curve]"
CC(C)C[C@H](NC(=O)c1cc2ccccc2s1)C(=O)N1CCN(C(=O)[C@H](CO)NS(=O)(=O)c2ccc(Cl)cc2Cl)CC1,Potency,CRL-7250,"inconclusive: 20.9 µM [inhibitor, partial curve]"
COc1ccc2c(c1)c(CC(=O)O)c(C)n2C(=O)c1ccc(Cl)cc1,Potency,CRL-7250,"inconclusive: 5.31 µM [inhibitor, single point]"
O=C(O)c1ccc(O)c2ncc(N3CCOCC3)cc12,Potency,CRL-7250,"inconclusive: 37.2 µM [inhibitor, single point]"
CCN1CCCC1CNC(=O)c1cc(S(N)(=O)=O)ccc1OC (stereo unspecified),outcome,CRL-7250,inactive
C[C@H]1O[C@H](O[C@H]2[C@H](O)[C@@H](O)[C@@H](O[C@H]3[C@H](O)[C@@H](O)C(O)O[C@H]3CO)O[C@H]2CO)[C@H](O)[C@@H](O)[C@H]1N[C@H]1C=C(CO)[C@@H](O)[C@H](O)[C@@H]1O (stereo partly specified),max response,CRL-7250,inactive: 1.59%
NC(=NCCCCCCN=C(N)N=C(N)Nc1ccc(Cl)cc1)N=C(N)Nc1ccc(Cl)cc1,Potency,CRL-7250,"inconclusive: 37.2 µM [inhibitor, single point]"
NS(=O)(=O)c1cc2c(cc1Cl)NC(C(Cl)Cl)NS2(=O)=O (stereo unspecified),max response,CRL-7250,inactive: -3.96%
same,outcome,CRL-7250,inactive
CN(C)CCN1C(=O)c2cccc3cc(N)cc(c23)C1=O,Potency,CRL-7250,active: 10.5 µM
CCCS(=O)(=O)Nc1ccc(F)c(C(=O)c2c[nH]c3ncc(-c4ccc(Cl)cc4)cc23)c1F,Potency,CRL-7250,"inconclusive: 16.6 µM [inhibitor, partial curve, poor fit] and inconclusive: 29.1 µM [inhibitor, single point]"
O=c1ncn2nc(Sc3ccc(F)cc3F)ccc2c1-c1c(Cl)cccc1Cl,Potency,CRL-7250,"inconclusive: 10.5 µM [inhibitor, partial curve, poor fit]"
Cc1cc(Nc2cc(N3CCN(C)CC3)nc(C=Cc3ccccc3)n2)n[nH]1,Potency,CRL-7250,active: 5.4 µM
COC(=O)C1=C(C)NC(C)=C(C(=O)OC(C)C)C1c1cccc2nonc12 (stereo unspecified),Potency,CRL-7250,"inconclusive: 26.6 µM [inhibitor, single point]"
Cc1ccccc1C(C(=O)NC1CCCCC1)N(C(=O)CNc1ccc(C#N)cc1)c1cccc(F)c1 (stereo unspecified),max response,CRL-7250,inactive: 4.34%
same,outcome,CRL-7250,inactive
COC(=O)N[C@H](C(=O)N[C@@H](Cc1ccccc1)[C@@H](O)CN(Cc1ccc(-c2ccccn2)cc1)NC(=O)[C@@H](NC(=O)OC)C(C)(C)C)C(C)(C)C,Potency,CRL-7250,"inconclusive: 33.5 µM [inhibitor, single point]"
CC(C)(F)C[C@H](N[C@@H](c1ccc(-c2ccc(S(C)(=O)=O)cc2)cc1)C(F)(F)F)C(=O)NC1(C#N)CC1,Potency,CRL-7250,"inconclusive: 33.2 µM [inhibitor, partial curve, poor fit]"
same,Potency,HEK293,"inconclusive: 18.7 µM [inhibitor, partial curve]"
O=S(=O)(NCCNCC=Cc1ccc(Br)cc1)c1cccc2cnccc12,Potency,CRL-7250,"inconclusive: 14.8 µM [inhibitor, partial curve]"
same,Potency,HEK293,active: 7.43 µM
COc1cc2nc(N3CCN(C(=O)C4COc5ccccc5O4)CC3)nc(N)c2cc1OC (stereo unspecified),Potency,CRL-7250,"inconclusive: 33.5 µM [inhibitor, single point] and inconclusive: 33.2 µM [inhibitor, single point]"
same,Potency,HEK293,"inconclusive: 29.9 µM [inhibitor, single point] and inconclusive: 37.2 µM [inhibitor, single point]"
CN[C@@H]1CN(c2ccc3c(=O)c(C(=O)O)cn(-c4nccs4)c3n2)C[C@@H]1OC,Potency,CRL-7250,"inconclusive: 16.2 µM [inhibitor, single point]"
same,Potency,HEK293,active: 1.29 µM
C=CCn1c(=O)c2cnc(Nc3ccc(N4CCN(C)CC4)cc3)nc2n1-c1cccc(C(C)(C)O)n1,Potency,CRL-7250,"inconclusive: 0.132 µM [inhibitor, full curve, poor fit]"
same,max response,CRL-7250,inactive: -7.63%
same,Potency,HaCat,active: 332 nM and active: 1.64 µM
COc1ccc2c(c1)c(C1=C(c3c[nH]c4ccccc34)C(=O)NC1=O)cn2CCCN(C)C,outcome,CRL-7250,inactive
same,Potency,HEK293,"inconclusive: 37.2 µM [inhibitor, single point]"
CCN1CCN(c2ccc(Nc3cc(N(C)C(=O)Nc4c(Cl)c(OC)cc(OC)c4Cl)ncn3)cc2)CC1,Potency,CRL-7250,"inconclusive: 743 nM [inhibitor, full curve, poor fit] and active: 7.31 µM"
same,Potency,HEK293,"inconclusive: 10.5 µM [inhibitor, full curve] and active: 16.4 µM"
